Screen size: about 310,000 compounds; about 2,200 (0.71%) showed an effect of 50% or more. The effect is printed as a negative number. Some of the results follow.

The target of the assay is human ether-à-go-go-related gene (hERG) potassium channel (human, UniProt Q12809). Nature of the assay: primary screen, population patch clamp on CHO cells stably expressing hERG.
Chain of human ether-à-go-go-related gene (hERG) potassium channel (Q12809 whole entry, looked up): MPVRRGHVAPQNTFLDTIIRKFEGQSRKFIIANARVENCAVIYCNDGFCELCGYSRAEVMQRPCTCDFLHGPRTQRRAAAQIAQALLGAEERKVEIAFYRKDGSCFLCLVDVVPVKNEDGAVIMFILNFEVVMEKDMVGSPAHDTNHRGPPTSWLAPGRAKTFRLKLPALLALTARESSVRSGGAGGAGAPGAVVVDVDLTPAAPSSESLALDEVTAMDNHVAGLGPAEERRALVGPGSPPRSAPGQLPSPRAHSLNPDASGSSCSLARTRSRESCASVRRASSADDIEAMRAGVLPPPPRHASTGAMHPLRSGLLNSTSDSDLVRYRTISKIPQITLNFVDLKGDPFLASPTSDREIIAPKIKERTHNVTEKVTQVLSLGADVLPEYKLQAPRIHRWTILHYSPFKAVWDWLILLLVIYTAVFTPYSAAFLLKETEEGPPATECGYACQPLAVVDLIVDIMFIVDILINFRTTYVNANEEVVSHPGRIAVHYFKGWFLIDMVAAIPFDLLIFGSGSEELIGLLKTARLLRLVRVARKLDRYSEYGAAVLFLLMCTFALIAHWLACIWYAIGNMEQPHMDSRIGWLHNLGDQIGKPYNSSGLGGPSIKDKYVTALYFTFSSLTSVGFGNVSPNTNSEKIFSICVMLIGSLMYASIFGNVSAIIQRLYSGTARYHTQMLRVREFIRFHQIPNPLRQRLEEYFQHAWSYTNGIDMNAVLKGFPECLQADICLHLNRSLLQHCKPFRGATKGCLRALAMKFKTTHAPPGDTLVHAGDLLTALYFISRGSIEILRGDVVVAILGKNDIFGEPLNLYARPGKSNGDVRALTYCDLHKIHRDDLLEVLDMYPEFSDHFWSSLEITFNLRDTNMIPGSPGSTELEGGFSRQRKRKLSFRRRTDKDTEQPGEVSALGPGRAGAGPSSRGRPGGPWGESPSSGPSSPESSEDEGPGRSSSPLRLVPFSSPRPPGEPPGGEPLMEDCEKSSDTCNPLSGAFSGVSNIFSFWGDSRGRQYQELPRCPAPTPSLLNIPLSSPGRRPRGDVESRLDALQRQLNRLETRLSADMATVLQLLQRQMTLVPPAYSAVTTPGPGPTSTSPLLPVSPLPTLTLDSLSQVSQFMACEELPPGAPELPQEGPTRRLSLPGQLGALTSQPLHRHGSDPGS
For `Cn1c(-c2ccc(Cl)nc2)nc2ccccc21`, the “hERG current change (%, negative = inhibition) at 1uM” value was found to be 10.1%. In the case of `Nc1nonc1-n1nnc(C(=O)N/N=C/c2cc(Cl)ccc2O)c1CN1CCCCCC1`, the “hERG current change (%, negative = inhibition) at 1uM” value is 10.7%. As for `CC(=O)N1CCC(N(C(=O)Nc2ccc(C)c(C)c2)C2CCCC2)CC1`, the figure is -4.91%; as for `O=C(NCCSCc1ccccc1)c1ccc(F)cc1`, 3.15%. `COc1ccccc1N1CCN(Cc2ccc(SC)cc2)CC1.O=C(O)C(=O)O`: the “hERG current change (%, negative = inhibition) at 1uM” value was -53.8%.

In the case of `CN(C)c1nc(NCc2ccccc2)nc(N/N=C/c2cccc(Br)c2)n1`, the “hERG current change (%, negative = inhibition) at 1uM” value is 22.7%. The figure for `CC(C)=CCC/C(C)=C/CCC(C)NCCN1CCNCC1` (stereo not drawn) is -3.73%. For the compound `CC(C)CN(C(=O)C1=NN(c2ccccc2)C(=O)CC1)c1c(N)n(Cc2ccccc2)c(=O)[nH]c1=O`, the “hERG current change (%, negative = inhibition) at 1uM” value is 6.64%. The figure for `NC(=O)c1nsc(C(=O)N(c2ccc(Cl)cc2)C(C(=O)NCC2CCCO2)c2cccs2)c1N` (stereo not drawn) is 10.7%. As for `O=C(COC(=O)Cc1ccc(F)cc1)Nc1ccc2[nH]c(=O)[nH]c2c1`, the figure is 15.4%; as for `Cc1ccccc1OCC(=O)Nc1cccc(S(=O)(=O)NC2=NCCCCC2)c1`, 9.96%. With `COC(=O)C1(C(F)(F)F)N=C2Sc3ccccc3N2C(N2CCOCC2)=N1` (stereo not drawn), the “hERG current change (%, negative = inhibition) at 1uM” value is 14.8%. For `O=C(Nc1nc2c(s1)CCCC2)c1nn(Cc2ccccc2)c(=O)c2ccccc12`, the “hERG current change (%, negative = inhibition) at 1uM” value is 3.84%. As for `CC(C)/C(C=O)=C(/NC1CCCCC1)c1ccccc1`, the “hERG current change (%, negative = inhibition) at 1uM” value was determined as 10.8%. The figure for `C=CCn1c(SCc2n[nH]c(=S)n2-c2ccccc2)nnc1-c1ccccc1` is 3.44%; for `CC(C)CCN1CCN(Cc2ccsc2)CC1CCO` (stereo not drawn) it is 7.06%. Consider `CCOc1ccc(C(=O)NC2CCN(C(=S)NCc3ccco3)CC2)cc1`, for which the “hERG current change (%, negative = inhibition) at 1uM” value is recorded as -22.6%. Take `Cc1ccc(-c2csc(=S)n2CC(=O)OCC(=O)NCc2ccco2)cc1`: the “hERG current change (%, negative = inhibition) at 1uM” value worked out at 1.59%.

`COc1cc2c(cc1OC)CN(C(=O)c1cccs1)CC2`: the “hERG current change (%, negative = inhibition) at 1uM” value amounted to 8.62%. In the case of `O=C(NN1CCOCC1)c1ccc(Cl)cc1`, the “hERG current change (%, negative = inhibition) at 1uM” value stood at 3.21%. The figure for `CCc1ccc(NC(=S)NCc2cccnc2)cc1` is 5.53%; for `O=C(NC1CC1)c1c[nH]c2ccc(S(=O)(=O)Nc3cccc(C(F)(F)F)c3)cc2c1=O` it is 5.59%; for `CCN(c1ccccc1)S(=O)(=O)c1cc([N+](=O)[O-])ccc1N` it is 15.3%. With `CC(=O)Nc1cc(S(=O)(=O)Nc2ccccc2)c(C)cc1C`, the “hERG current change (%, negative = inhibition) at 1uM” value is on record as 4.49%. As for `CCOC(=O)c1[nH]c2ccccc2c1NC(C)=O`, the “hERG current change (%, negative = inhibition) at 1uM” value was found to be 9.69%.

Regarding `O=C(CCC(F)(F)F)N1CCCC(CO)(CCc2ccccc2)C1` (stereo not drawn), the “hERG current change (%, negative = inhibition) at 1uM” value was -3.42%. Turning to `COc1cc(/C=N/O)ccc1OCc1ccccc1Cl`, the “hERG current change (%, negative = inhibition) at 1uM” value is on record as 12.7%. The figure for `Cc1ccc2nc3c(nc2c1)-c1ccccc1C3=O` is 7.74%; for `O=C(NCc1ccncc1)C1CCC(=O)N(CCc2ccc(Cl)cc2)C1` (stereo not drawn) it is -34.4%. `Cc1c(C(=O)NCCCc2ccccc2)cccc1[N+](=O)[O-]`: the “hERG current change (%, negative = inhibition) at 1uM” value is given as 4.59%. On to `COc1ccc(C(=O)C[n+]2cccc3cc(C)ccc32)cc1.[Br-]`, for which the “hERG current change (%, negative = inhibition) at 1uM” value stood at 12%. As to `O=C(O)c1ccccc1C(=O)OCCCc1ccncc1`, the “hERG current change (%, negative = inhibition) at 1uM” value is recorded as 14.5%.

As to `C=CCn1cc(-c2cccc(C(F)(F)F)c2)cc(C#N)c1=O`, the “hERG current change (%, negative = inhibition) at 1uM” value was 4.22%. For `COc1ccc(N=C2S/C(=C\c3ccc(N4CCOCC4)o3)C(=O)N2CCc2c[nH]c3ccccc23)cc1`, the “hERG current change (%, negative = inhibition) at 1uM” value is on record as 16%. Regarding `COCC(=O)Nc1cc(C)cn(Cc2cccc(C(F)(F)F)c2)c1=O`, the “hERG current change (%, negative = inhibition) at 1uM” value is on record as 6.31%. The figure for `CN(C)c1nc(-c2ccccc2)cc(C(F)(F)F)c1C#N` is 10.7%. The figure for `COc1cc2ccccc2cc1C(=O)Nc1nc(C)c(C(C)=O)s1` is 18.7%; for `Cc1cc2nc(-c3ccc[nH]c3=O)n(Cc3cccc(F)c3)c2cc1C` it is 11%; for `Cc1nnc2ccc(-c3cccc(NS(=O)(=O)c4ccccc4[N+](=O)[O-])c3)nn12` it is -1.85%. The figure for `CNC(=O)C1Cc2ccccc2CN1S(=O)(=O)c1ccc(OC)c(OC)c1` (stereo not drawn) is 12.9%; for `COCCn1c(SC2CCOC2=O)nc2ccccc2c1=O` (stereo not drawn) it is 7.9%; for `CCc1ccc(NC(=O)C(C)Oc2nnc(-c3cccs3)c(-c3cccs3)n2)cc1` (stereo not drawn) it is 3.36%.

In the case of `Cc1cccc(-n2c(C)cc(/C=N\NC(=O)c3ccco3)c2C)c1`, the “hERG current change (%, negative = inhibition) at 1uM” value came out at 3.71%. For the compound `Cc1cc(N=Nc2ccc(C)c(N=Nc3cc(C)c(N)cc3N)c2)c(N)cc1N`, the “hERG current change (%, negative = inhibition) at 1uM” value was determined as 14.3%.

As for `O=C1CN(C(=O)CNCc2ccc(Cl)cc2)c2ccccc2N1`, the “hERG current change (%, negative = inhibition) at 1uM” value worked out at 7.02%.

Consider `Cc1ccc2c(c1)c1c(n2CC(O)CN2CCC(C)CC2)CCCC1` (stereo not drawn), for which the “hERG current change (%, negative = inhibition) at 1uM” value was -22.5%.

As for `CCN(CC)c1ccc(/C=N/N(c2ccccc2)c2ccccc2)c(O)c1`, the “hERG current change (%, negative = inhibition) at 1uM” value came to 10.3%.

Regarding `Cc1ccc(C)c(S(=O)(=O)Nc2ccc(C(=O)NCC(c3ccco3)N3CCCCC3)cc2)c1` (stereo not drawn), the “hERG current change (%, negative = inhibition) at 1uM” value is reported as -6.15%. The figure for `CCCCC(CC)CNC(=O)c1cccs1` (stereo not drawn) is 6.99%. As for `CCOCCOC(=O)C1=C(C)N(C)C(=O)NC1c1ccccc1Cl` (stereo not drawn), the “hERG current change (%, negative = inhibition) at 1uM” value came out at 15.4%. For the compound `Oc1ccc(CN2CCN(c3ncccn3)CC2)cc1`, the “hERG current change (%, negative = inhibition) at 1uM” value was 11%. Regarding `COc1ccc(CNC(=O)C2CC(C)=CCC2C(=O)O)cc1` (stereo not drawn), the “hERG current change (%, negative = inhibition) at 1uM” value was found to be 9.45%. The figure for `COc1ccc(CSCC(=O)Nc2ccc(S(=O)(=O)N3CCCCCC3)cc2)cc1` is 4%; for `O=C(CN1CCOCC1)NCC(=O)Nc1ccc(Br)cc1C(=O)c1ccccc1` it is -20%; for `CC(OC(=O)Cn1cnc2c1c(=O)n(C)c(=O)n2C)C(=O)NC(C)c1ccc(Cl)cc1Cl` (stereo not drawn) it is 6.98%. On to `Cc1ccc(N(CC(=O)NC2CCC(C)CC2)S(=O)(=O)c2cccnc2)cc1` (stereo not drawn), for which the “hERG current change (%, negative = inhibition) at 1uM” value is recorded as 6.88%. Turning to `O=C(CN(Cc1ccco1)C(=O)CNS(=O)(=O)c1ccc(F)cc1)NCc1ccccc1`, the “hERG current change (%, negative = inhibition) at 1uM” value was 1.5%.

For `Oc1c(C=C2N=c3ccccc3=N2)sc(=S)n1C1CCCC1`, the “hERG current change (%, negative = inhibition) at 1uM” value is recorded as 8.93%. The figure for `NC(=O)c1ccsc1NC(=O)COC(=O)CCOc1ccccc1` is 7.97%; for `COC(CN(C)C(=O)C1CCCN(S(=O)(=O)c2ccc3c(c2)oc(=O)n3C)C1)OC` (stereo not drawn) it is 19.8%; for `CCOc1ccc(C2C(C(=O)c3ccc(C)o3)=C(O)C(=O)N2CCCN(CC)CC)cc1` (stereo not drawn) it is 12.1%. As for `Cc1ccc(C(=O)CSc2nnc(-c3snnc3C)n2C2CC2)cc1`, the figure is 13.7%.

With `Cc1onc(-c2ccccc2)c1C(=O)NCC1COc2ccccc2O1` (stereo not drawn), the “hERG current change (%, negative = inhibition) at 1uM” value worked out at 1.02%.

Take `COc1ccccc1CNC(=O)N1CCN(c2ccccc2)CC1`: the “hERG current change (%, negative = inhibition) at 1uM” value came to 2.54%. `CCOC(=O)C(C)(C)N(Cc1ccc(Cl)cc1)S(=O)(=O)c1ccc(Cl)c([N+](=O)[O-])c1`: the “hERG current change (%, negative = inhibition) at 1uM” value worked out at 13.2%. As for `Cc1ccc(C(C)(C)C)cc1S(=O)(=O)Nc1nc2ccccc2nc1Cl`, the figure is -16.8%. On to `COc1cccc(-c2cc(C(F)(F)F)n3nc(C(=O)Nc4c(C)n(C)n(-c5ccccc5)c4=O)cc3n2)c1`, for which the “hERG current change (%, negative = inhibition) at 1uM” value was 9.18%.

As to `CC(Sc1ncn[nH]1)C(=O)Nc1cc(C(F)(F)F)ccc1Cl` (stereo not drawn), the “hERG current change (%, negative = inhibition) at 1uM” value worked out at 9.43%.

For `CC1CCN(CCC(=O)Nc2ccc3c(c2)OCCO3)CC1.O=C(O)C(=O)O`, the “hERG current change (%, negative = inhibition) at 1uM” value worked out at 32.4%. As for `Cc1cccn2c(=O)c3cc(C(=O)NCC4CCCO4)c(=N)n(Cc4cccnc4)c3nc12` (stereo not drawn), the figure is -96.3%; as for `CCOC(=O)CSc1nnc(NCC(=O)OC(C)C)c(=O)[nH]1`, 13.5%; as for `CCc1cc(C(=O)O)c(NC(=O)/C=C/c2ccc(OC)c(OC)c2)s1`, 33.4%.

For `COc1ccc(C2=CC3=C(Br)C(=O)C(C)(OC(=O)C4CCCC4)C(=O)C3=CO2)cc1` (stereo not drawn), the “hERG current change (%, negative = inhibition) at 1uM” value was determined as 10.1%. For `CCCN(CC(=O)Nc1ccc(C(N)=O)cc1)CC(=O)Nc1ccccc1C`, the “hERG current change (%, negative = inhibition) at 1uM” value was found to be 15.4%. Turning to `Cc1ccccc1OCCSc1nc2ccccc2n1CCC(=O)O`, the “hERG current change (%, negative = inhibition) at 1uM” value stood at 8.07%. For the compound `Cc1ccc2c(C)c(C(=O)N(Cc3ccc(N(C)C)cc3)C3CCS(=O)(=O)C3)oc2c1` (stereo not drawn), the “hERG current change (%, negative = inhibition) at 1uM” value stood at 8.54%. As for `CC(=O)N1CCC(N2CCCC(C(=O)c3cccc(Cl)c3)C2)CC1` (stereo not drawn), the figure is 3.34%; as for `O=C(Nc1ccc(Cl)cn1)C1CCCN1S(=O)(=O)c1ccccc1` (stereo not drawn), 2.67%; as for `Cc1cccc(/C(N)=N/OC(=O)Cc2cccs2)c1`, 6.61%. As for `CCN1C(=O)[C@H]2[C@@H](c3ccc(C)cc3)N3C(=O)N(c4cccc(Cl)c4)C(=O)[C@@]3(Cc3ccccc3)[C@H]2C1=O`, the figure is 11.4%; as for `O=C(Nc1ccccc1C(=O)NCc1cccnc1)c1ccco1`, 6.43%; as for `O=C(Nc1nc(=O)c2ccccc2s1)c1ccccc1`, -1.73%.

Take `CCc1ccccc1N1CC(C(=O)Nc2cc(C)on2)CC1=O` (stereo not drawn): the “hERG current change (%, negative = inhibition) at 1uM” value is 2.08%. For `C=CCNC(=S)NN(c1ccccc1)c1ccccc1`, the “hERG current change (%, negative = inhibition) at 1uM” value was 8.76%. As for `Cc1ccc(S(=O)(=O)N/N=C/C(C)(C)CO)cc1`, the figure is 8.87%; as for `CC(=O)N[C@@H]1[C@@H](O)[C@@H]2OC(c3ccccc3)OC[C@H]2O[C@@H]1N=[N+]=[N-]` (stereo partly drawn), 13.7%. In the case of `Cc1cc(C(=O)CSc2nnc(-c3cccnc3)n2-c2ccccc2F)c(C)n1C`, the “hERG current change (%, negative = inhibition) at 1uM” value is recorded as -1.28%.

Source of the values: PMC4336329 (PLoS ONE, 2015).
